Assay [1] has as its target T1, OsRFC3 (rice (Oryza sativa)) (UniProt Q6YZ54).
T1 sequence: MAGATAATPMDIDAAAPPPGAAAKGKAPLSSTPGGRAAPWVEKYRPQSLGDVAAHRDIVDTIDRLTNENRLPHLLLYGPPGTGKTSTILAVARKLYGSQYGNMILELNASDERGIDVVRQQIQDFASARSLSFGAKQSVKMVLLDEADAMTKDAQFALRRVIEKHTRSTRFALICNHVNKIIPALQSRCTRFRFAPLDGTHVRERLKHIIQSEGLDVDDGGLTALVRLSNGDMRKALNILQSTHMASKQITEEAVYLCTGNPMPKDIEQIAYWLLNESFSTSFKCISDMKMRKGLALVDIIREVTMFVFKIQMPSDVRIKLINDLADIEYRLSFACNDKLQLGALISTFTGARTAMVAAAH
The assay is described as follows: two-hybrid; yeast two-hybrid; full-length ORFs in pGADT7 (AD) and pGBKT7 (BD); co-transformed strains spotted on SD-L-T and SD-L-T-H-A plates; empty AD or BD plasmids as negative controls.

Amino acid sequences for entries named in this document (tags omitted).
UniProt Q93ZX1: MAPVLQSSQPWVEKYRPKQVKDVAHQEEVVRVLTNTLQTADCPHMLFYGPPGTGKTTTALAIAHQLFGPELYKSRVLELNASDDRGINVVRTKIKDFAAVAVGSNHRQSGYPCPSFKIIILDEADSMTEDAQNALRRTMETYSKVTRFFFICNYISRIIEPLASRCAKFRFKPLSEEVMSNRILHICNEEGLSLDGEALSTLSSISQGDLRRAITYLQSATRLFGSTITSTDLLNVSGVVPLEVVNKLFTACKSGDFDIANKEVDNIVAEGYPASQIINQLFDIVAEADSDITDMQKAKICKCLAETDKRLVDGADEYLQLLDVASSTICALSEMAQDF
UniProt Q9FXM3: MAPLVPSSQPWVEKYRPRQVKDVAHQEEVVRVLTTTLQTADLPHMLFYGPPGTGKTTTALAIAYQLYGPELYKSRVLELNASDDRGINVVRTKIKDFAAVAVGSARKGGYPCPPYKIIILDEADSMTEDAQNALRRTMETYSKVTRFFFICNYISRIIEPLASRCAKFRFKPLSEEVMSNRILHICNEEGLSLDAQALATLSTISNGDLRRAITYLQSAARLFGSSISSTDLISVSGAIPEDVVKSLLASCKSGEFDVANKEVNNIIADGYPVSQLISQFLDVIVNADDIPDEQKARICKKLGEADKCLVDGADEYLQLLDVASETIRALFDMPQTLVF

The target in assay [2] is T2, OsRFC4 (rice (Oryza sativa)) (UniProt Q7XRX1).
T2 sequence: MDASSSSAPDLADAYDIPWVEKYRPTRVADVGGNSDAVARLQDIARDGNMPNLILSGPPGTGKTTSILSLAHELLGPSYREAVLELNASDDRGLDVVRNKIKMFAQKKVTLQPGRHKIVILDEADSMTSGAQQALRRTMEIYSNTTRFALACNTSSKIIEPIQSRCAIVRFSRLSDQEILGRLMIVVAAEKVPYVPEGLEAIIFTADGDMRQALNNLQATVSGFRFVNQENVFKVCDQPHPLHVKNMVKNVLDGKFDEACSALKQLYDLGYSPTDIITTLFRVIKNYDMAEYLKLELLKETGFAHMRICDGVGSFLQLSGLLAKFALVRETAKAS
The description is as above.

Assay [3] addresses T3, OsRFC5 (rice (Oryza sativa)) (UniProt Q852K3).
T3 sequence: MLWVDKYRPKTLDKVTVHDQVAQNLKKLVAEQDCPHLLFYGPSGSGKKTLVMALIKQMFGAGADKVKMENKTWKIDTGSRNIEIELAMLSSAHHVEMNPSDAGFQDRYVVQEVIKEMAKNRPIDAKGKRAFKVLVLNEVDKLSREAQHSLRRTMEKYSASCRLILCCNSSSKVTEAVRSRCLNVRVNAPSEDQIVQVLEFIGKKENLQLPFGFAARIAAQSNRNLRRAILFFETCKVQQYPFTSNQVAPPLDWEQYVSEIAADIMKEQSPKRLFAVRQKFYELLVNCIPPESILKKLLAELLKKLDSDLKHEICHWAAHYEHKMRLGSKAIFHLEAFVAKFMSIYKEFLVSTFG
Described as above.

Assay [4] has as its target T4, AtRFC2 (Arabidopsis thaliana) (UniProt Q9CAM7).
T4 sequence: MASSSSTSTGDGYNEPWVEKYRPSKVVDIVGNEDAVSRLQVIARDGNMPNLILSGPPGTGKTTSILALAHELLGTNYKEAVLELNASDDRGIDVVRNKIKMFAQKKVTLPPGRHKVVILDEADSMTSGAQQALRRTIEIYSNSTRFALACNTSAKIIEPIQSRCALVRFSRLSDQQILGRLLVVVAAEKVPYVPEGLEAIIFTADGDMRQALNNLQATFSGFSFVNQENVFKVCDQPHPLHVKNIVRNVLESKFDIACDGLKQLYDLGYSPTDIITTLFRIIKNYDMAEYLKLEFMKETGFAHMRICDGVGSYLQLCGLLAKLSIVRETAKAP
The assay is described as follows: split reporter; BiFC; YFP^N (aa 1-155) and YFP^C (aa 156-239) fusions (pCAMBIA-SPYNE, pCAMBIA-SPYCE) co-expressed in tobacco (Nicotiana benthamiana) leaf epidermal cells through Agrobacterium GV3101; confocal microscopy of YFP; only the two named fusions.

For assay [5], the target named is T5, AtRFC5 (Arabidopsis thaliana) (UniProt Q8VXX4).
T5 sequence: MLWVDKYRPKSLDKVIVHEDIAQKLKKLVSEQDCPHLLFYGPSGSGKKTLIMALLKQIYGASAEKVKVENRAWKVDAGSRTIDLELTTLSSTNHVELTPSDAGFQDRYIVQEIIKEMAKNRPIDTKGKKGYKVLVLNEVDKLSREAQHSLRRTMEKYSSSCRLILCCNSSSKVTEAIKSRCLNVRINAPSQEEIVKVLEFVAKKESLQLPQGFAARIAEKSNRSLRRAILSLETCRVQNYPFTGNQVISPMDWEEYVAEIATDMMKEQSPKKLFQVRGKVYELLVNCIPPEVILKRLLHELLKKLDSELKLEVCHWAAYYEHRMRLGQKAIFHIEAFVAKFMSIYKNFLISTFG
Described as above.

In assay [6] the target is T6, OsRFC1 (rice (Oryza sativa)) (UniProt Q2R2B4).
T6 sequence: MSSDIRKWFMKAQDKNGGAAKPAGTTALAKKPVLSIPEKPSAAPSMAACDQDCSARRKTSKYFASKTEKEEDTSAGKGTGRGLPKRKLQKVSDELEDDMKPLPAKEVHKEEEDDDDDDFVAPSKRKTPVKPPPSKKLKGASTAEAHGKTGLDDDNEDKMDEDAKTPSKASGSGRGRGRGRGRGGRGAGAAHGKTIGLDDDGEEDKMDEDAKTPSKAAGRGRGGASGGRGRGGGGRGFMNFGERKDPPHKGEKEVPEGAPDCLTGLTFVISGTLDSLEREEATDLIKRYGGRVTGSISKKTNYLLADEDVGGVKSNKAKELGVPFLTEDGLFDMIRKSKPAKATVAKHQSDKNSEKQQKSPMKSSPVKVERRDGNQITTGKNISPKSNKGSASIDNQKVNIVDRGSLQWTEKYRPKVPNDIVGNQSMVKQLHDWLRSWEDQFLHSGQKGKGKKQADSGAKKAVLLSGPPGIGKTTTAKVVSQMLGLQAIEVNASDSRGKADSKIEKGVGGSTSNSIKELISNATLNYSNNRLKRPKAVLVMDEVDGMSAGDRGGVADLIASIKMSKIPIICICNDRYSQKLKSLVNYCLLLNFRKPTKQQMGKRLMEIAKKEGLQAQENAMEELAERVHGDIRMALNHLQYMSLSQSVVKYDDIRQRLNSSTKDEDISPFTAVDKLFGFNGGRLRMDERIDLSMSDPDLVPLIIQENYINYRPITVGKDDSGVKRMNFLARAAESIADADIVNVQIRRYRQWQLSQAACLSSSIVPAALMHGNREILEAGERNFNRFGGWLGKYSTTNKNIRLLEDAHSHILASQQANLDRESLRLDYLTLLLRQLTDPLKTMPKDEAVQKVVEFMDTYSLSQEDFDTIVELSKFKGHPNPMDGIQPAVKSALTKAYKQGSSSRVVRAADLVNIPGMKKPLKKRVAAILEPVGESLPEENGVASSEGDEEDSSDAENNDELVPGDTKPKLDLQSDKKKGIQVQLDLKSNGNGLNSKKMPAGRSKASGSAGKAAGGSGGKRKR
The assay is described as above.

Assay [7] concerns the target T4, AtRFC2 (Arabidopsis thaliana). The assay is described as follows: split reporter; BiFC in tobacco leaf epidermal cells with truncated AtRFC proteins, pairs that include AtRFC1 or a truncated AtRFC1; whether the other small subunits were co-expressed is not said.
The target in assay [8] is AtRFC4 (Arabidopsis thaliana) (UniProt Q93ZX1). The assay is described as above.
Assay [9] concerns the target T5, AtRFC5 (Arabidopsis thaliana). The assay is described as above.

No constants are given. Whether binding was seen depends on the method and setting. For part of these data: In cells and extracts the contact can be indirect. Some results given as binding are weak or reduced against the parent protein; the word gives no strength.

Take OsRFC2 (from UniProt Q9FXM3 1-339): the binding result is “binds” in assay [1]; “no binding” in assay [2]; “binds” in [3]; “binds” in [4]; “binds” in [5]; “binds” in assay [6].

B1: AtRFC1 Δ1-457 (domain or fragment, UniProt Q9C587 458-956)
chain: MAANFDRSKHPKTVLIMDEVDGMSAGDRGGVADLIASIKISKIPIICICNDRYSQKLKSLVNYCLPLNYRKPTKQQMAKRLMHIAKAEGLEINEIALEELAERVNGDIRLAVNQLQYMSLSMSVIKYDDIRQRLLSSAKDEDISPFTAVDKLFGYNGGKLRMDERIDLSMSDPDLVPLLIQENYLNYRPSGKDEAKRMDLLARAAESIADGDIINVQIRRYRQWQLSQSCCVASSILPASLLHGSREVLEQGERNFNRFGGWLGKNSTAGKNRRLMEDLHVHVLASRESSAGRETLRVDYLPLLLSRLTSPLQTLPKDEAVSEVVDFMNSYSISQEDFDTILELGKFKGRENPMEGVPPPVKAALTKKYNEMNKTRMVRVADMVQLPGVKKAPKKRIAAMLEPTVDSLRDEDGEPLADNEEGNGSDAEEDSEEATDGEKLESNLKNLNARGIQVELDLKGAGSSGSRKAAGKGRGRGKAADTSAEKKATGRGSGAKRKR
Take B1: the binding entry in [7], in [8] and in assay [9] was “no binding” each time.

B2: AtRFC1 Δ897-956 (domain or fragment, UniProt Q9C587 1-896)
chain: MSDIRKWFMKAHEKGNGSAPKSTSSKAGPVKNAAETAPIKSEQASEDLETADRRKTSKYFGKDKTKVKDEKEVEAIPAKRKLKTESDDLVKPRPRKVTKVVDDDDDDFDVPISRKTRDTTPSKKLKSGSGRGIASKTVDNDDDDDGEDKETPLKSAGRGRGGRAAPGASTGGRGRGGGRGGFMNFGERKDPPHKGEKEVPEGTPDCLAGLTFVISGTLDSLEREEAEDLIKRHGGRITGSVSKKTTYLLCDEDIGGRKSEKAKELGTKFLTEDGLFDIIRSSKPVKKSLPERSNKGTEKICAPPKTSPQKEETRGKPLAKSSPKKVPPAKGKNKIIETSLPWTEKYRPKVPNEIVGNQSLVTQLHNWLSHWHDQFGGTGSKGKGKKLNDAGSKKAVLLSGTPGIGKTTSAKLVSQMLGFQAVEVNASDSRGKANSNIAKGIGGSNANSVKELVNNEAMAANFDRSKHPKTVLIMDEVDGMSAGDRGGVADLIASIKISKIPIICICNDRYSQKLKSLVNYCLPLNYRKPTKQQMAKRLMHIAKAEGLEINEIALEELAERVNGDIRLAVNQLQYMSLSMSVIKYDDIRQRLLSSAKDEDISPFTAVDKLFGYNGGKLRMDERIDLSMSDPDLVPLLIQENYLNYRPSGKDEAKRMDLLARAAESIADGDIINVQIRRYRQWQLSQSCCVASSILPASLLHGSREVLEQGERNFNRFGGWLGKNSTAGKNRRLMEDLHVHVLASRESSAGRETLRVDYLPLLLSRLTSPLQTLPKDEAVSEVVDFMNSYSISQEDFDTILELGKFKGRENPMEGVPPPVKAALTKKYNEMNKTRMVRVADMVQLPGVKKAPKKRIAAMLEPTVDSLRDEDGEPLADNEEGNGSDAEEDSEEATDGEK
On to B2, for which the binding result in assay [7], in assay [8] and in assay [9] was “no binding” in each case.

The record behind these values is paper PMC6018503.
